About 540 (0.36%) of roughly 150,000 compounds showed an effect of 50% or more. The list shows a part of the results.

The assay concerns Plasmodium falciparum. The assay can be described thus: Primary screen in NF54 nanoGlo assay, in single point, at 2uM, 72h; a lower Z score goes with more inhibition. To be noted: timepoint 72 hour. Type of assay: functional, Erythrocyte.
Broadly, the % Inhibition is the change of the read-out against control, counted positive when it falls. With `O=C(NCC1CCN(C(=O)[C@@H]2CCc3ccccc32)CC1)c1ccsc1`, the “% Inhibition” value is listed as -7% and the Z score was 1.14.
Turning to `c1ccc(-c2csc(N3C[C@@H]4[C@H](C3)[C@H]3CC[C@@H]4O3)n2)cc1`, the “% Inhibition” value is on record as -5% and the Z score was 0.94.
For `CC(C)C(C)S(=O)(=O)C(C)c1ncc(-c2ccccc2)o1` (centres undefined) the same measures were -7% and 0.94.
For `Cc1cc(C(=O)N2C[C@@H]3CC[C@H]2CN(Cc2cccnc2)C3)ccc1Cl` the same measures were 2% and -0.46.
As to `Cc1nn(C)c(C)c1S(=O)(=O)N[C@H]1CCCN(C2CCCCCC2)C1`, the “% Inhibition” value is reported as -21% and the Z score stood at 1.94.
The like results for `COCc1c(C(=O)N(C)[C@@H](C)c2nc(C)cs2)cnn1-c1nccc(-c2ccco2)n1` were, in that order, -13% and 1.81.
For `C[C@H]1CN(C(=O)CN2C(=O)c3ccccc3C2=O)CCO1` the same measures were -3% and 0.37.
Regarding `CCOC(=O)c1cc2n(n1)C[C@@](C)(C(=O)NCCC(C)C)N(c1cc(C)cc(C)c1)C2=O`, the “% Inhibition” value was -3% and the Z score stood at 0.37.
In the case of `CN1C(=O)c2ccccc2O[C@H]2CN(C(=O)NCc3ccccc3)C[C@H]21`, the “% Inhibition” value is -11% and the Z score is on record as 1.42.
Turning to `OC[C@H]1CCCN(c2nc(N3CCCC3)nc(N3CCCC3)n2)C1`, the “% Inhibition” value is given as -11% and the Z score is on record as 1.49.
For `CN(C)CCNc1nc(-c2ccc(C(F)(F)F)cc2)c2c(N)n(C)nc2n1`, the “% Inhibition” value amounted to 22% and the Z score is -2.12.
The like results for `COC(=O)c1c(-c2cccc(Cl)c2)noc1NCc1cccc(Cl)c1` were, in that order, -1% and 0.25.
For `O=C(Cc1cccnc1)N[C@@H]1[C@H]2CCO[C@H]2[C@H]1Cc1ccccc1` the same measures were 12% and -1.64.
For `Cc1cccc2[nH]c(C3CCN(Cc4cnc(N(C)C)s4)CC3)nc12` the same measures were 6% and -0.79.
For the molecule `CC[C@@H]1CN(C(=O)c2cccc(NC(=O)c3ccco3)c2C)CC[C@]1(C)O`, the “% Inhibition” value was -3% and the Z score worked out at 0.4.
In the case of `CCOC1CC(O)(CNC(=O)Cc2c(F)cccc2F)C1(C)C` (centres undefined), the “% Inhibition” value is recorded as -2% and the Z score was 0.19.
Consider `CC[C@]1(CO)CCCN(c2nccn3nc(C)cc23)C1`, for which the “% Inhibition” value is on record as 0% and the Z score is given as 0.04.
For `COCc1noc(-c2cccc3c2ccn3C)n1` the same measures were -5% and 0.5.
The like results for `O=S(=O)(Cc1ccccc1)Nc1nnc[nH]1` were, in that order, 29% and -4.17.
`CC(C)C(=O)NCc1csc(C2CCN(C(=O)c3ccco3)CC2)n1`: the “% Inhibition” value was -18% and the Z score was determined as 2.31.
The like results for `C[C@@H]1Oc2ccc(NS(=O)(=O)c3ccc(F)cc3)cc2NC1=O` were, in that order, -4% and 0.79.
The like results for `O=C(Cn1cnc2ccccc2c1=O)N1C[C@@H]2C[C@@H](C1)C1CCCC(=O)N1C2` (some centres undefined) were, in that order, 1% and -0.11.
The like results for `O=C(NCc1cccs1)[C@H](Cc1ccccc1)N1CCCOC1=O` were, in that order, 1% and -0.14.
`CCCCn1c(C(=O)NCc2ccccc2)cc2cc(NC(=O)CC)ccc21`: the “% Inhibition” value was 1% and the Z score is given as -0.15.
Take `C[C@H](NCc1ccccc1)C1CCCc2ccccc21` (some centres undefined): the “% Inhibition” value stood at 1% and the Z score is -0.11.
As to `O=C(NCc1cccnc1-c1ccccc1)c1ccc(Br)o1`, the “% Inhibition” value is on record as -5% and the Z score is 0.64.
With `COC(=O)C1CC23CCCN4CCC5(c6ccccc6NC15C2C)C43` (centres undefined), the “% Inhibition” value is on record as -11% and the Z score is listed as 1.01.
The like results for `CN(C)Cc1nnc([C@H]2C[C@@H](NC(=O)c3n[nH]c4c3CCCC4)C2)n1C` were, in that order, -14% and 1.38.
On to `Cn1cc(CN2CCC(C(=O)N3CCCC3)CC2)c(-c2ccccc2F)n1`, for which the “% Inhibition” value is given as -8% and the Z score was found to be 1.02.
For `CCC(NC(=O)NC(C)C(=O)N(C)C)c1ccc(F)cc1F` (centres undefined) the same measures were 0% and 0.03.
The like results for `COc1ccccc1C(=O)N1CCN(c2nc(Cc3ccc(C)cc3)nc3c2c(C)nn3-c2ccccc2)CC1` were, in that order, -24% and 2.13.
For `O=C(Cn1cc(Br)cn1)N1CCCc2ccccc21` the same measures were -9% and 1.2.
For the molecule `Cc1ccc(OCC(=O)N[C@H]2CN(C(CO)CO)C[C@@H]2C(C)C)cc1`, the “% Inhibition” value stood at 3% and the Z score is reported as -0.38.
Consider `CC1CCC(C(C)C)C(OC(=O)COC(=O)c2ccncc2)C1` (centres undefined), for which the “% Inhibition” value is reported as -10% and the Z score is listed as 1.31.
For `O=C(NCCCC1CCCCO1)NC1COc2cc(F)cc(F)c21` (centres undefined) the same measures were -12% and 1.21.
The like results for `O=C(CCS(=O)(=O)c1ccc(Cl)cc1)Nc1nnc(-c2cc(Cl)ccc2Cl)o1` were, in that order, -12% and 2.36.
For `CCc1nnc(CN(c2ccc(Cl)cc2F)S(C)(=O)=O)s1` the same measures were -4% and 0.37.
As to `O=S(=O)(NC1CCCCNC1)[C@H]1C[C@@H]1c1ccccc1` (some centres undefined), the “% Inhibition” value is -8% and the Z score turned out to be 1.29.
The like results for `Cn1cc(C(=O)Nc2cc(F)ccc2F)c(=O)[nH]c1=O` were, in that order, -5% and 0.48.
On to `CS(=O)(=O)c1ccc(NCC(F)(F)CN)c(F)c1`, for which the “% Inhibition” value is reported as -5% and the Z score came out at 0.69.
With `Cn1c(-c2ncccc2C(=O)N2CCCC2)cc2ccccc21`, the “% Inhibition” value was 9% and the Z score is on record as -1.2.
`O=C(CCCn1ccnc1)Nc1cccc(Cl)c1O`: the “% Inhibition” value was -4% and the Z score is recorded as 0.71.
